For one assay, the system named is OVCAR4. Put plainly: log2 surviving fraction (library drug vs vehicle, or drug + carboplatin vs carboplatin alone; relative to plate median); ovarian cancer lines: OVCAR4 is platinum-sensitive and Ov4Carbo platinum-resistant; higher = more cell survival. The conditions noted are these: library drug concentration 10 µM, 7 days.
In another assay the test system is Ov4Carbo. The description is as above. The settings on record: library drug concentration 10 µM, 7 days.

Counter-ions that a name gives are not always drawn. The list shows a part of the results. Many values rest on one well or one pass, so single values are uncertain.

With `CC(=O)NC[C@H]1CN(c2ccc(N3CCOCC3)c(F)c2)C(=O)O1` [Linezolid (Zyvox)], the log2 surviving fraction is 0.215 with OVCAR4 (carboplatin co-treatment 0 µM), 0.83 with OVCAR4 (carboplatin co-treatment 5 µM), 0.835 with Ov4Carbo (carboplatin co-treatment 0 µM) and -0.547 in the assay with Ov4Carbo (carboplatin co-treatment 5 µM).
`N=C(N)N/N=C/c1c(Cl)cccc1Cl` [Guanabenz acetate]: the log2 surviving fraction is -1.45 in the assay on OVCAR4 (carboplatin co-treatment 0 µM), -2.45 in the assay with OVCAR4 (carboplatin co-treatment 5 µM), -2.08 in the assay on Ov4Carbo (carboplatin co-treatment 0 µM) and -2.64 in the assay on Ov4Carbo (carboplatin co-treatment 5 µM).
For `Nc1ccn([C@@H]2O[C@H](CO)[C@@H](O)[C@@H]2O)c(=O)n1` [Cytarabine], the log2 surviving fraction was -7.8 in the assay on OVCAR4 (carboplatin co-treatment 0 µM), -5.72 in the assay on OVCAR4 (carboplatin co-treatment 5 µM), -4.74 with Ov4Carbo (carboplatin co-treatment 0 µM) and -5.53 with Ov4Carbo (carboplatin co-treatment 5 µM).
In the case of `Cc1ccc(S(=O)(=O)NC(=O)NN2CCCCCC2)cc1` [Tolazamide], the log2 surviving fraction in the assay on OVCAR4 (carboplatin co-treatment 0 µM) was 0.124; in the assay with OVCAR4 (carboplatin co-treatment 5 µM) it was 0.265; with Ov4Carbo (carboplatin co-treatment 0 µM), -0.397; in the assay with Ov4Carbo (carboplatin co-treatment 5 µM) it was 0.289.
For `Nc1nc2[nH]cnc2c(=S)[nH]1` [Thioguanine] the same measures were -5.44, -4.63, -6.39 and -5.96.
The like results for `COC(=O)C1=CO[C@@H](O[C@@H]2O[C@H](CO)[C@@H](O)[C@H](O)[C@H]2O)[C@@H]2C(CO)=CC[C@H]12` [Geniposide] were, in that order, 1.39, 1.65, 1.96 and 0.96.
The like results for `CC(C)C(=O)Nc1ccc([N+](=O)[O-])c(C(F)(F)F)c1` [Flutamide (Eulexin)] were, in that order, -0.636, -0.304, -0.206 and -0.25.
For the compound `Clc1ccc(C(c2ccccc2Cl)C(Cl)Cl)cc1` (stereo not drawn) [Mitotane (Lysodren)], the log2 surviving fraction was 0.413 in the assay with OVCAR4 (carboplatin co-treatment 0 µM), -0.913 in the assay on OVCAR4 (carboplatin co-treatment 5 µM), 0.0344 in the assay on Ov4Carbo (carboplatin co-treatment 0 µM) and -0.0164 in the assay on Ov4Carbo (carboplatin co-treatment 5 µM).
For `C[C@H]1C[C@H]2[C@@H]3CCC4=CC(=O)C=C[C@]4(C)[C@@]3(F)[C@@H](O)C[C@]2(C)[C@@]1(O)C(=O)CO` [Betamethasone (Celestone)] the same measures were 0.58, 0.609, 1.05 and 0.648.
For `O=C(N[C@H](CO)[C@H](O)c1ccc([N+](=O)[O-])cc1)C(Cl)Cl` [Chloramphenicol (Chloromycetin)] the same measures were 0.159, 0.108, 0.0208 and 0.097.
For the compound `Cc1onc(-c2ccccc2)c1C(=O)N[C@@H]1C(=O)N2[C@@H]1SC(C)(C)[C@@H]2C(=O)O` [Oxacillin sodium monohydrate], the log2 surviving fraction turned out to be 0.637 in the assay with OVCAR4 (carboplatin co-treatment 0 µM), 0.426 with OVCAR4 (carboplatin co-treatment 5 µM), 0.218 in the assay on Ov4Carbo (carboplatin co-treatment 0 µM) and 0.558 with Ov4Carbo (carboplatin co-treatment 5 µM).
For `CCn1cc(C(=O)O)c(=O)c2cc(F)c(N3CCNCC3)cc21` [Norfloxacin (Norxacin)] the same measures were 0.31, 0.235, -0.38 and 0.0942.
The like results for `C=C1/C(=C\C=C2/CCC[C@]3(C)[C@@H]([C@H](C)CCCC(C)C)CC[C@@H]23)C[C@@H](O)C[C@@H]1O` [Alfacalcidol] were, in that order, -0.152, -0.27, -1.32 and -0.571.
For `C[C@H](Cn1cnc2c(N)ncnc21)OCP(=O)(O)O` [Tenofovir (Viread)] the same measures were -0.747, -0.806, 0.835 and 0.701.
Regarding `Cc1nnc(NS(=O)(=O)c2ccc(N)cc2)s1` [Sulfamethizole (Proklar)], the log2 surviving fraction with OVCAR4 (carboplatin co-treatment 0 µM) is -0.00699; in the assay with OVCAR4 (carboplatin co-treatment 5 µM), -0.228; with Ov4Carbo (carboplatin co-treatment 0 µM), -1.48; in the assay on Ov4Carbo (carboplatin co-treatment 5 µM) it was 1.73.
For `CC/C(=C(/CC)c1ccc(O)cc1)c1ccc(O)cc1` [Diethylstilbestrol (Stilbestrol)] the same measures were -0.0533, -0.00788, 0.095 and -4.69.
Consider `CC(Oc1c(Cl)cccc1Cl)C1=NCCN1` (stereo not drawn) [Lofexidine  HCl], for which the log2 surviving fraction with OVCAR4 (carboplatin co-treatment 0 µM) is -0.521; in the assay with OVCAR4 (carboplatin co-treatment 5 µM), 1.71; in the assay with Ov4Carbo (carboplatin co-treatment 0 µM), -0.312; in the assay with Ov4Carbo (carboplatin co-treatment 5 µM), 0.815.
The like results for `COc1ccc(C2C(=O)c3ccccc3C2=O)cc1` [Anisindione] were, in that order, 0.0266, 0.0195, 0.157 and 0.209.
In the case of `CN1CCN(c2cc3c(cc2F)c(=O)c(C(=O)O)cn3-c2ccc(F)cc2)CC1` [Difloxacin HCl], the log2 surviving fraction was -2.56 with OVCAR4 (carboplatin co-treatment 0 µM), 0.527 in the assay on OVCAR4 (carboplatin co-treatment 5 µM), -0.161 in the assay with Ov4Carbo (carboplatin co-treatment 0 µM) and -0.116 in the assay on Ov4Carbo (carboplatin co-treatment 5 µM).
For `O=P(O)(O)C(O)(Cn1ccnc1)P(=O)(O)O` [Zoledronic Acid (Zoledronate)] the same measures were 0.0759, 1.28, 0.324 and 0.275.
As to `Nc1nccs1` [Aminothiazole], the log2 surviving fraction in the assay on OVCAR4 (carboplatin co-treatment 0 µM) is 0.64; with OVCAR4 (carboplatin co-treatment 5 µM) it was 0.157; in the assay with Ov4Carbo (carboplatin co-treatment 0 µM), 1.01; with Ov4Carbo (carboplatin co-treatment 5 µM), -0.28.
The like results for `O=C1CCc2cc(OCCCCc3nnnn3C3CCCCC3)ccc2N1` [Cilostazol] were, in that order, 0.95, 0.943, -0.0949 and 0.275.

The values are drawn from the supplement of paper PMC8047034.
